The campaign covered roughly 48,000 compounds. About 450 (0.94%) were called active. Another 19% or so got no clear call; they are omitted. The call rests on the fitted dose curve; in most records, active means well fitted inhibition curve with a large enough effect; inconclusive means small, poorly fitted or top-dose-only effect; inactive means no such curve, though single readings can be large or run the other way. This is one part of the list.

The experiment can be described thus: Primary qHTS for Identification of Small Molecule Inhibitors of Huntingtin Promoter Activity. Further: nearly all actives have a fitted effect of over 50% in size. The note with it: HEK293 HTT promoter firefly luciferase reporter (activity 0% = vehicle and -100% = no light), 24 h; series mostly up to 57.5 µM; activity change, negative = inhibition: at the top concentration. From the text: Assay Provider: Russell L. Margolis M.D.
Department Neurology, Johns Hopkins University School of Medicine, Baltimore, MD
Huntington's Disease (HD) is a neurodegenerative disorder caused by a CAG repeat expansion in exon 1 of huntingtin (HTT). While there are currently no disease-modifying treatments for HD, recent efforts have focused on development of nucleotide-based therapeutics to lower HTT expression. As an alternative to siRNA or oligonucleotide methods, we hypothesized that suppression of HTT expression might be accomplished by small molecules that either (1) directly decrease HTT expression by suppressing HTT promoter activity or (2) indirectly decrease HTT expression by increasing the promoter activity of HTT-AS, the gene antisense to HTT that appears to inhibit expression of HTT.
We developed and employed a high throughput screen for modifiers of HTT and HTT-AS promoter activity using luminescent reporter HEK293 cells; of the 52,041 compounds tested, we identified 898 replicable hits. We used a rigorous stepwise approach to assess compound toxicity and the capacity of the compounds to specifically lower huntingtin protein in 5 different cell lines, including HEK293 cells, HD lymphoblastoid cells, mouse primary neurons, HD iPSCs differentiated into cortical-like neurons, and HD hESCs. We found no compounds which were able to lower huntingtin without lowering cell viability in all assays, though the potential efficacy of a few compounds at non-toxic doses could not be excluded.
SEQUENCE No. (1, 2, 3, etc.); […] (e.g., Cells, Incubation, Reagent, etc.); VALUE and DESCRIPTION.
1; Reagent; 4 uL; 2,500 Hek293 luciferase reporter cells per wells
3; Compound; 23 nL; Control inhibitor / compound library
5; Reagent; 2.5 uL; Firefly Luc reagent; Dual-Glo Luciferase Reporter Assay System (Promega)
6; Time; 10 min; room temperature incubation
7; Detection; Luminescence; FLuc
NOTES (numbers refer to sequence above)
1; High-throughput screening, measuring luminescence from a Hek293 luciferase reporter, was performed in 1,536 well white-walled tissue-culture treated plates. 2,500 cells were plated in 4 µL of Opti-MEM per well using a Multidrop Combi Reagent Dispenser (ThermoFisher).
2; Assay plates were cultured for 24 hours.
3; Control inhibitor (PTC124; final concentration of 50 uM) and compound library (at final concentrations of 460 nM - 57.5 uM) were added to the assay plate using the Kalypsis Pintool Robotic System equipped with 1536 pinheads.
4; Cells were then incubated for 24 hours at 37 degrees C prior to luminescence measurements.
5; In all cases, luminescence was measured using the Dual-Glo Luciferase Reporter Assay System (Promega) following the manufacturer's instructions.
6; Room temperature incubation.
7; Luminescence signal was obtained using the PerkinElmer ViewLux plate reader. Results were normalized to vehicle control (0% activity) and zero RLU (-100% activity).
In general terms: qHTS replaces the single test concentration by a dilution series.
For `O=C(CCSCc1ccccc1F)N1CCN(c2ccc(Cl)cc2)CC1`, the “activity change, negative = inhibition” value is inactive: -29.4%. Take `CCCN1CCN(CCNC(=O)Nc2cc(C)ccc2OC)CC1`: the “activity change, negative = inhibition” value is inactive: -15.2%. The value for `CCOC(=O)c1ccc(NC2=CC(c3ccc(O)c(OCC)c3)N(c3ccc(C(=O)OCC)cc3)C2=O)cc1` (configuration not stated) was inactive: 1.78%; that for `COc1cc2c(C(=O)Nc3ccc(C)cc3Br)cn(C)c(=O)c2cc1OC` was inactive: -8.91%; that for `CCOc1ccccc1NC(=O)c1sc2nc(-c3ccc(OC)cc3)ccc2c1N` was inactive: 15.7%. On to `CCC1CCCCN1CCCNC(=O)c1c(O)nc2c(C)cccn2c1=O` (configuration not stated), for which the “activity change, negative = inhibition” value was inactive: -5.03%. The value for `N#Cc1ccccc1Cn1c(=O)n(CCCCC(=O)NCc2ccc3c(c2)OCO3)c(=O)c2ccccc21` was inactive: -12.7%; that for `Cc1ccccc1C(=O)Nc1nnc(S(=O)(=O)N(C)Cc2ccc(Cl)cc2)s1` was inactive: -8.65%; that for `O=C(Cc1ccc(F)cc1)N1CCC(c2nc3c(nnn3Cc3ccc(F)cc3)c(=O)[nH]2)CC1` was inactive: -16%.

Turning to `COc1ccc(OCC(=O)Nc2ccc(O)c(-c3nc4ccccc4s3)c2)cc1`, the activity change, negative = inhibition is inactive: -25.3% [at 11.5 µM]. For the compound `CCCn1c(=O)c2sccc2n2c(CCCC(=O)Nc3ccccc3OCC)nnc12`, the “activity change, negative = inhibition” value was inactive: -11%. Consider `COc1ccc(CC(=O)N2CC(=O)Nc3ccc(Br)cc3C2c2ccc(F)cc2)cc1` (configuration not stated), for which the “activity change, negative = inhibition” value is inactive: -28.9%. The value for `CCS(=O)(=O)N1CC(=O)N(c2cc(C)ccc2C)C(C)(C(=O)NC2CCCCC2)C1` (configuration not stated) was inactive: 6.79%; that for `Cc1ccc(Cl)cc1NC(=O)N1CCC2(CC1)Oc1ccccc1C(=O)N2Cc1ccccc1F` was inactive: -29.2%; that for `COc1ccc(-n2nnc(-c3nsc(NC(=O)c4cccs4)n3)c2C)cc1OC` was inactive: 29.6%. For `Cc1cccc(NC(=O)C(=O)NCCc2sc(-c3ccccc3)nc2C)c1C`, the “activity change, negative = inhibition” value is inactive: -4.86%.

Regarding `Cc1c(Cl)cccc1NC(=O)C(CCS(C)(=O)=O)N1Cc2ccccc2C1=O` (configuration not stated), the “activity change, negative = inhibition” value is inactive: -9.89%.

`COc1ccc(-c2cn3c(n2)sc2cc(C(=O)NC4CCCCCC4)ccc23)cc1`: the “activity change, negative = inhibition” value is inactive: -1.39%.

`CC(=O)c1c(C)oc2ccc(N(C(=O)Oc3ccccc3)S(=O)(=O)c3ccccc3)cc12`: the “activity change, negative = inhibition” value is inactive: -31.4%. Take `CC(CNC(=O)c1cc(-c2ccccc2)n[nH]1)c1ccccc1` (configuration not stated): the “activity change, negative = inhibition” value is inactive: 27.2%. The value for `CC1CCCN(c2c(S(=O)(=O)c3ccccc3)cnc3ccc(Cl)cc23)C1` (configuration not stated) was inactive: -14.3%; that for `Nc1cc(=O)nc(SCC(=O)Nc2ccc(F)cc2)n1-c1cccc(Cl)c1` was inactive: -18.5% [at 11.5 µM].

Regarding `Cc1cccc(N2CCN(C(=O)c3c(C)oc4ncnc(N5CCOCC5)c34)CC2)c1C`, the “activity change, negative = inhibition” value was inactive: -3.71%.

In the case of `COc1ccc(C)cc1NC(=O)c1cc(S(=O)(=O)N2CCC(C)CC2)cn1C`, the “activity change, negative = inhibition” value is inactive: -15%. The value for `COc1ccc(CCN2C(=O)N(c3ccc(C)cc3)C(=O)C2CC(=O)Nc2ccc(F)cc2)cc1` (configuration not stated) was inactive: -26.5%. The value for `Cc1nn(C(=O)COc2ccccc2Br)c(C)c1Sc1ccccc1` was inactive: -32.8%; that for `CS(=O)(=O)c1ccc(C2=C(c3ccccc3)C(=O)OC2)cc1` was inactive: 0.0629%.

Regarding `COc1cccc(NC(=O)c2sc3nc(C)c(C(=O)Nc4ccc(Cl)cc4)c(-c4ccc(Br)cc4)c3c2N)c1`, the “activity change, negative = inhibition” value was inactive: -20.5%. In the case of `O=C(CSc1n[nH]c(-c2ccccc2)n1)N1CCN(c2ccccc2F)CC1`, the “activity change, negative = inhibition” value is inactive: -8.63%. The value for `Cc1cccc(NC(=O)c2sc3nc(-c4ccccc4)cn3c2C)c1C` was inactive: 6.91%.

Consider `COc1ccc2c(CNCc3ccccc3OC)c(C(=O)O)n(Cc3ccc(F)cc3Cl)c2c1`, for which the “activity change, negative = inhibition” value was inactive: 7.54%. With `CCc1ccc(NC(=O)C2CCC(CNS(=O)(=O)c3ccc4c(c3)C(C)(C)C(=O)N4C)CC2)cc1` (configuration not stated), the “activity change, negative = inhibition” value is inactive: -13%. With `COc1ccc2c(Sc3ccc(C)cc3)c(C(=O)NCCc3ccccc3)[nH]c2c1`, the “activity change, negative = inhibition” value was inactive: 13.4%. For `OCc1cnc(SCc2ccc(F)cc2)n1Cc1ccc(F)cc1`, the “activity change, negative = inhibition” value was inactive: -36.2%. Turning to `CCOC(=O)C1=C(C)NC(=O)NC1c1cn(-c2ccccc2)nc1-c1ccc(OC(C)C)cc1` (configuration not stated), the “activity change, negative = inhibition” value was inactive: -4.06%. Consider `Cc1nn(C)c2c1c(C(F)(F)F)cc(=O)n2C(C)C(=O)NCCc1ccccc1` (configuration not stated), for which the “activity change, negative = inhibition” value was inactive: -10.8%.

Consider `O=C(c1ccc(F)cc1)N1CCC(c2nc(-c3ccc(S(=O)(=O)N4CCCC4)cc3)no2)CC1`, for which the “activity change, negative = inhibition” value is inactive: -9.2%. Turning to `COc1ccccc1N(CC(=O)Nc1ccc2c(c1)OCO2)S(=O)(=O)c1ccc(C)cc1`, the “activity change, negative = inhibition” value is inactive: -20.6%. Take `O=C(CN1c2ccccc2S(=O)(=O)c2ccccc21)Nc1ccccc1Cl`: the “activity change, negative = inhibition” value was inactive: 0%. As to `O=C(Cn1cnc2onc(-c3ccc(F)cc3)c2c1=O)Nc1ccc(F)c(Cl)c1`, the “activity change, negative = inhibition” value is inactive: -19%. As to `CCc1nn(CC(=O)NCCCN2CCN(CC)CC2)c(=O)c2cc3occc3n12`, the “activity change, negative = inhibition” value was inactive: -10.5%. The value for `CCCOc1ccc(-c2nonc2NC(=O)c2oc3ccc(Cl)cc3c2C)cc1OCCC` was inactive: -11.9%. For the compound `O=C(c1ccc2c(c1)N(Cc1c(F)cccc1Cl)C(=O)c1ccccc1S2)N1CCOCC1`, the “activity change, negative = inhibition” value was inactive: -21.3%. On to `Cc1ccc2nc(COc3ccccc3NC(=O)c3ccccc3F)cc(=O)n2c1`, for which the “activity change, negative = inhibition” value is inactive: -2.54%. As for `CCc1cccc(NC(=O)C2Cc3ccccc3N2C(=O)c2ccccc2)c1` (configuration not stated), the “activity change, negative = inhibition” value is inactive: 0%.

Turning to `NC(=O)Cn1c(=O)n(CCCCCC(=O)NCc2ccc(F)cc2)c(=O)c2sccc21`, the “activity change, negative = inhibition” value is inactive: 3.02%.

With `COc1ccc(OC)c(NC(=O)CSc2ncc3c(n2)-c2ccccc2N(C)S3(=O)=O)c1`, the “activity change, negative = inhibition” value was inactive: -13.9%.

Values taken from PubChem BioAssay AID1508623 (National Center for Advancing Translational Sciences (NCATS), 2021).
